Reference: PubChem BioAssay (NCI)
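Briefly, cells in 96-well plates were exposed to five compound concentrations for 48 h, and endpoints were estimated by linear interpolation. Here, GI50 denotes the concentration required for 50% inhibition of growth. Definition used: TGI = concentration required for complete inhibition of growth.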 Bridge positions count the residues as written; N and C are the ends. Square brackets hold non-standard residues; d marks the D form. Peptide text beside a SMILES is read from it. I, II: the chains in the order shown. * marks the point of attachment. Heptadecanoyl = CCCCCCCCCCCCCCCCC(=O)*; Phg = N[CH](C(=O)O)c1ccccc1

The compounds below were run on NCI-H322M lung (assay: DTP human tumour cell line panel, 48 h).

| Structure (SMILES) | GI50 | TGI |
| --- | --- | --- |
| Cc1cc(Cl)ccc1Nc1nc(C(F)(F)F)ccc1C(=O)N/N=C/c1ccc(F)cc1 | 1.16 µM | 7.35 µM |
| N=c1c2c(=O)n3c(nc2nc2sc4ccc(Cl)cc4n12)-c1ccccc1Sc1ccccc1-3 | 1.94 µM | 8.91 µM |
| Cc1ccc(C2CC(c3cccc(Nc4ccncc4)c3)=NN2c2ccc(Cl)cc2)cc1 (stereo unspecified) | 1.54 µM | 2.89 µM |
| CC1=C/C(=C(/c2ccc(O)c(C)c2)c2ccccc2C(=O)O)C=CC1=O |  | 34.6 µM |
| Clc1ccc(CSCc2ccc(Cl)cc2Cl)c(Cl)c1 |  | > 100 µM |
| Cc1ccccc1C(C#N)/C(=N/NC(=O)C(=O)NN)C(=O)Nc1cccc(C(F)(F)F)c1 (stereo unspecified) |  | > 100 µM |
| COc1cc([C@@H]2c3cc4c(cc3[C@@H](NC(=O)c3ccc([N+](=O)[O-])cc3)C3COC(=O)[C@@H]32)OCO4)cc(OC)c1O (stereo partly specified) |  | 85.9 µM |
| CCCN1CN(C(C(=O)N[C@@H]2C(=O)N3C(C(=O)O)=C(C)CSC23)c2ccccc2)CSC1=S (stereo partly specified) |  | > 100 µM |
| N.N.N.N.O=S(=O)([O-])[O-].[Co+3].[OH3+].[OH3+] |  | > 100 µM |
| O=c1[nH][nH]c(=S)c(=O)[nH]1 |  | > 100 µM |
| Clc1cccc(Cl)c1C1SCc2nc3ncccc3n21 (stereo unspecified) |  | > 100 µM |
| O=C1C(c2c(O)[nH]c3ccc(S(=O)(=O)N(CCO)CCO)cc23)=Nc2ccccc21 |  | > 100 µM |
| Nc1nc(Cl)nc2c1ncn2C1CCC(CO)O1 (stereo unspecified) |  | > 100 µM |
| CCOC(=O)c1c2c(n3cccc(F)c13)C(=O)c1ncccc1C2=O | 0.0759 µM | 6.82 µM |
| CC1(C)OC([C@H](O)CO)C([C@H]2NCCS2)O1 (stereo partly specified) |  | > 100 µM |
| COc1cc(CNC(=O)CCCCCCCCCCSSCCCCCCCCCCC(=O)NCc2ccc(O)c(OC)c2)ccc1O |  | > 10 µM |
| Cn1cc(C2=C(c3cccc(NCC(O)CO)c3)C(=O)NC2=O)c2cc(Cl)ccc21 (stereo unspecified) | 4.89 µM | 16.5 µM |
| CCOC(=O)C1C(=O)CC(C)(O)C(C(=O)OCC)C1c1ccc(OC)cc1 (stereo unspecified) |  | > 100 µM |
| Cc1cc(Cl)ccc1Nc1nc(C(F)(F)F)ccc1C(=O)N/N=C/c1c(Cl)cccc1Cl | 0.212 µM | 0.873 µM |
| Cc1ccc(OCCn2cc(Nc3ccccc3)c(=O)[nH]c2=O)cc1 |  | > 100 µM |
| C/C(=C\[C@H]1C[C@@H]([C@@H]2CC[C@]34C[C@]23C=C[C@@H]2[C@@]3(C)CC=C5C[C@@H](c6ccccc6)OC[C@]5(C)[C@@H]3C[C@@H](O)[C@]24C)C(=O)O1)CO |  | > 58.1 µM |
| CC(C)C(/C=C/c1ccc(Cl)cc1)=N\NC(=S)NN |  | > 100 µM |
| C=CCn1c(=S)sc2c(=O)[nH]cnc21 |  | > 100 µM |
| Cn1c(C2CC(C)(C)c3c2c2ccccc2n3C)cc2ccccc21 (stereo unspecified) |  | > 304 µM |

| Structure (SMILES) | GI50 | TGI |
| --- | --- | --- |
| COC1=CC(=O)C2[C@H]3Cc4ccccc4[C@H]3C2(C)C1=O (stereo partly specified) |  | > 100 µM |
| O=C1[C@H](c2ccccc2)C2c3ccccc3CCN12 (stereo partly specified) | > 100 µM | > 100 µM |
| O=C(CN/C=C\C(=O)c1cc(Cl)ccc1Cl)c1ccccc1 | 81.1 µM | > 100 µM |
| C(#Cc1ccccc1C#Cc1ccccn1)c1ccc(OCCCCCCOc2ccc(C#Cc3ccccc3C#Cc3ccccn3)cc2)cc1 | 6.61 µM | 16.7 µM |
| O=C(Cc1nc2ccccc2s1)NC12CC3CC(CC(C3)C1)C2 |  | > 100 µM |
| CC1(CC(=O)OC(C#C[Si](C)(C)C)Cc2ccccc2)OCCO1 (stereo unspecified) |  | > 100 µM |
| CCCCCCCCCCCCCCCCC(=O)N1CCCC1C(=O)NCC(=O)NC(C(=O)N1CCCC1C(=O)NC(CO)C(=O)NC(Cc1ccc(O)cc1)C(=O)NC(CCCCNC(=O)C1CCCN1C(=O)C(CCCCN)NC(=O)C(CCCCN)NC(=O)C(CCCCN)NC(=O)C(CCCNC(=N)N)NC(=O)C(CCCCN)NC(=O)C(N)C(C)C)C(=O)NC(CC(C)C)C(=O)NC(CCCNC(=N)N)C(=O)N1CCCC1C(=O)NCC(N)=O)c1ccccc1 (stereo unspecified) (I: Heptadecanoyl-PG[Phg]PSYKLRPG-NH2 / II: H-VKRKKKP; amide I:7-II:C; configuration not given here) | 16.6 µM | 56 µM |
| N=C(N)c1ccc(-c2ccc(-c3ccc(C(=N)N)cc3)o2)cc1 |  | > 100 µM |
| CN(C)C(=S)SCc1ccccc1 |  | > 100 µM |
| CC1CC(=O)NC2CC1C2(C)C (stereo unspecified) |  | > 100 µM |
| COC1(C)Cc2c(c(C)c(O)c3c2C(=O)C=C(Cl)C3=O)O1 (stereo unspecified) |  | > 100 µM |
| CCCCN1C(=O)C[C@H]2[C@@H]3CCc4cc(OCCN5CCCC5)ccc4[C@H]3CC[C@]2(C)C1=O |  | 22.1 µM |
| N=C(N)c1ccc(-c2ccc(-c3ccco3)o2)cc1F | 2.1 µM | 5.73 µM |
| CC[C@]12C=CCN3CCC4(c5cc(N=Nc6ccc([N+](=O)[O-])cc6)c(OC)cc5N(C)[C@H]4[C@@](O)(C(=O)OC)[C@@H]1OC(C)=O)[C@@H]32 (stereo partly specified) |  | 67.3 µM |
| CCN1CCN(Cc2ccc3cc(C(=O)Nc4cc(NC(=O)c5ccc6c(c5)OCCO6)ccc4F)ccc3n2)CC1 | 0.0477 µM | 3.63 µM |
| CCN(CC)CCCC(C)Nc1ccnc2cc(Cl)c(SCc3ccccc3)cc12 (stereo unspecified) | 2.25 µM | 6.31 µM |
| O=C(O)CCCC#CCCCC(=O)O |  | > 100 µM |
| CCCCC/C(=N\c1nc[nH]c1C(N)=O)OCC |  | > 100 µM |
| COc1ccc(C2C3=C(CCCC3=O)N(c3ccccc3)C3=C2C(=O)CCC3)cc1 |  | > 100 µM |
| Cn1c2ccccc2c(=S)c2cc(NC(=O)CCCCC(=O)Nc3ccc4c(c3)c(=S)c3ccccc3n4C)ccc21 |  | > 100 µM |
| Nc1nc(Cl)cc(NCC2(CO)CC(Cc3ccccc3)C2)n1 (stereo unspecified) |  | > 100 µM |
| COc1cccc(-c2cc(NCc3ccc4c(c3)OCO4)nc(N)n2)c1 | 2.43 µM | 25.6 µM |
| Cc1cc(-c2ccc(Cl)cc2)c(C#N)c(=S)n1C1OC(CO)C(O)C(O)C1O (stereo unspecified) |  | > 100 µM |
